The values below come from a collection of fitness landscapes (doi:10.1038/s41467-024-54723-y).

In all, about 18,000 sequences were measured (“TetR repression strength (sort-seq, GFP reporter)”: median about 0.23, highest 2% from about 0.68 on). Some of the results follow.

Sequence of UniProt P04483 (P04483 whole entry): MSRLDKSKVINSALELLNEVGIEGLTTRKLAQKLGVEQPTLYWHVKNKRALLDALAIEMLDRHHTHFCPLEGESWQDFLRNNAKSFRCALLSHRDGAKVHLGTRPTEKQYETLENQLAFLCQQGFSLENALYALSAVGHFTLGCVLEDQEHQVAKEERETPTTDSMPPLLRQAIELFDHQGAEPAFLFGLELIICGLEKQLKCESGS

This assay concerns the target TetR (class B, Tn10) (UniProt P04483). The assay can be described thus: TetR repression strength (sort-seq, GFP reporter) (relative to tetO2 = 1); higher = stronger repression. The following applies: E. coli. The essentials:
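E. coli SIG10-MAX carried a low-copy plasmid library with eight randomized operator positions between a constitutive promoter and sfGFP, with TetR constitutively expressed. Cells grew 5 h at 37 °C in LB with 50 µg/mL chloramphenicol, then 10^6 cells were FACS-sorted into 13 fluorescence bins, each Illumina-sequenced. Repression strength is the top bin index plus one minus the read-weighted mean bin, divided by the wild-type operator value. Three independent transformations; variants with ≥30 reads in all replicates and CV ≤0.5 were averaged.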
Regarding TCCCGTTCAGTCTGCGAGA, the TetR repression strength turned out to be 0.175.
In the case of TCCCCTATAGTGGCTGAGA, the TetR repression strength amounted to 0.143.
The figure for TCCCATACAGTGTATGAGA is 0.0352; for TCCCAAGCAGTGGGAGAGA it is 0.337; for TCCCAAGTAGTATAGGAGA it is 0.263.
The figure for TCCCTAAAAGTCGAGGAGA is 0.276.
On to TCCCGTATAGTGCTGGAGA, for which the TetR repression strength came to 0.301.
Turning to TCCCTTTTAGTGGTTGAGA, the TetR repression strength was determined as 0.283.
Sequence TCCCATGAAGTAAGGGAGA had a TetR repression strength of 0.284.
Take TCCCGCCCAGTGTGCGAGA: the TetR repression strength was found to be 0.217.
With TCCCATTAAGTTCTTGAGA, the TetR repression strength turned out to be 0.183.
The sequence TCCCTTAGAGTTAGTGAGA yielded a TetR repression strength of 0.177.
The sequence TCCCTTAAAGTCCTAGAGA returned a TetR repression strength of 0.211.
The figure for TCCCTCCGAGTGTCTGAGA is 0.34; for TCCCCATGAGTAGGAGAGA it is 0.0259.
The figure for TCCCAGTTAGTCGACGAGA is 0.257.
With TCCCGGCGAGTGGACGAGA, the TetR repression strength worked out at 0.372.
Consider TCCCCTAGAGTCTAAGAGA, for which the TetR repression strength was 0.332.
For the sequence TCCCTGGCAGTAATAGAGA, the TetR repression strength was 0.337.
TCCCTGGGAGTGTCCGAGA came in with a TetR repression strength of 0.663.
In the case of TCCCGGGCAGTGGTCGAGA, the TetR repression strength worked out at 0.16.
As for TCCCTTGGAGTGGCAGAGA, the TetR repression strength was 0.177.
TCCCAACTAGTTGGTGAGA yielded a TetR repression strength of 0.297.
TCCCTGTTAGTTCGGGAGA gave a TetR repression strength of 0.196.
Under TCCCCAATAGTCCTGGAGA stands 0.198; under TCCCGGGGAGTAAATGAGA, 0.244; under TCCCCTGCAGTAGTGGAGA, 0.136.
For TCCCACATAGTGGGGGAGA, the TetR repression strength is 0.101.
Under TCCCTACTAGTGGATGAGA stands 0.527; under TCCCGGGGAGTAGGCGAGA, 0.264; under TCCCGAAGAGTAATAGAGA, 0.194.
For the sequence TCCCGCAAAGTAAGCGAGA, the TetR repression strength worked out at 0.115.
TCCCCCGCAGTGGGTGAGA displayed a TetR repression strength of 0.141.
The figure for TCCCCGGTAGTTCTTGAGA is 0.316; for TCCCGGTCAGTGACAGAGA it is 0.666.
The figure for TCCCCAATAGTAGATGAGA is 0.672; for TCCCTATAAGTTATTGAGA it is 0.433.
For TCCCACGAAGTGAGTGAGA, the TetR repression strength was 0.104.
For TCCCGATGAGTTGGCGAGA, the TetR repression strength was found to be 0.119.
The sequence TCCCGGGTAGTCTCTGAGA yielded a TetR repression strength of 0.279.
TCCCTGGTAGTATTTGAGA displayed a TetR repression strength of 0.273.
The figure for TCCCGTCTAGTTTCCGAGA is 0.169.
TCCCGAGCAGTAAGGGAGA yielded a TetR repression strength of 0.228.
In turn, TCCCGGAGAGTTAGCGAGA yielded a TetR repression strength of 0.253.
TCCCTTCGAGTCGACGAGA came in with a TetR repression strength of 0.0548.
Take TCCCATGGAGTGTCCGAGA: the TetR repression strength is 0.0607.
TCCCCTTTAGTAGGGGAGA: the TetR repression strength stood at 0.145.
Consider TCCCTCAGAGTCGGAGAGA, for which the TetR repression strength was found to be 0.485.
As for TCCCTCTCAGTGTACGAGA, the TetR repression strength was determined as 0.509.
The sequence TCCCTAACAGTGTGCGAGA showed a TetR repression strength of 0.366.
TCCCAGGAAGTGTCGGAGA registered a TetR repression strength of 0.141.
Under TCCCGGACAGTTAGGGAGA stands 0.208; under TCCCGCGAAGTGAAAGAGA, 0.138.
Regarding TCCCCGACAGTAGTGGAGA, the TetR repression strength was found to be 0.208.
Sequence TCCCAGCTAGTGTCGGAGA showed a TetR repression strength of 0.162.
The figure for TCCCGTCTAGTTCTAGAGA is 0.36; for TCCCAGGGAGTGGAGGAGA it is 0.0995; for TCCCAGAGAGTTGGTGAGA it is 0.381.
The figure for TCCCCCCAAGTACGAGAGA is 0.263.
Consider TCCCAGCGAGTAGACGAGA, for which the TetR repression strength came out at 1.03.
TCCCTGAGAGTTGGGGAGA registered a TetR repression strength of 0.204.
Sequence TCCCCGTCAGTACGTGAGA yielded a TetR repression strength of 0.117.
For the sequence TCCCAAACAGTGGGTGAGA, the TetR repression strength stood at 0.224.
In the case of TCCCGACAAGTGCCTGAGA, the TetR repression strength is 0.0444.
In turn, TCCCGTTGAGTTCACGAGA had a TetR repression strength of 0.104.
The figure for TCCCGTTGAGTAGAAGAGA is 0.061.
In turn, TCCCTACGAGTTTGGGAGA gave a TetR repression strength of 0.292.
In the case of TCCCTGCCAGTGAGCGAGA, the TetR repression strength came to 0.0833.
The figure for TCCCTTTGAGTGGGCGAGA is 0.247; for TCCCTGGGAGTCACAGAGA it is 0.212.
The sequence TCCCGAGGAGTCTCTGAGA showed a TetR repression strength of 0.172.
On to TCCCCAATAGTGCATGAGA, for which the TetR repression strength stood at 0.139.
In the case of TCCCGCTAAGTGGAGGAGA, the TetR repression strength stood at 0.0766.
TCCCCGTGAGTTAAGGAGA had a TetR repression strength of 0.217.
As for TCCCCTATAGTAGCTGAGA, the TetR repression strength came out at 0.3.
Under TCCCCGCCAGTGCTAGAGA stands 0.164; under TCCCACCGAGTTTTGGAGA, 0.347; under TCCCGGTGAGTGGCTGAGA, 0.436.
Under TCCCTTACAGTACATGAGA stands 0.197.
TCCCCAAGAGTAGCTGAGA: the TetR repression strength came to 0.0943.
The figure for TCCCGAGAAGTACTAGAGA is 0.207; for TCCCAGGGAGTAAACGAGA it is 0.422.
The figure for TCCCCAGAAGTGGTGGAGA is 0.326; for TCCCCCCAAGTCGTGGAGA it is 0.234.
In turn, TCCCGTCTAGTATGAGAGA registered a TetR repression strength of 0.244.
Sequence TCCCTTACAGTAGGGGAGA yielded a TetR repression strength of 0.095.
The sequence TCCCGCGAAGTAGGGGAGA came in with a TetR repression strength of 0.104.
Sequence TCCCGGGTAGTCAGCGAGA registered a TetR repression strength of 0.425.
In turn, TCCCCGCTAGTTTAGGAGA came in with a TetR repression strength of 0.158.
The sequence TCCCGGACAGTAGGCGAGA had a TetR repression strength of 0.0814.
TCCCTCATAGTGAAGGAGA gave a TetR repression strength of 0.477.
TCCCCGTAAGTGGTTGAGA showed a TetR repression strength of 0.155.
Under TCCCCTCAAGTTCGGGAGA stands 0.204; under TCCCTGTCAGTTAAAGAGA, 0.383; under TCCCAAGTAGTGTGGGAGA, 0.256.
Sequence TCCCATTTAGTTCGGGAGA returned a TetR repression strength of 1.09.
TCCCGCTAAGTTAACGAGA had a TetR repression strength of 0.407.
Under TCCCATCGAGTTATGGAGA stands 0.575; under TCCCGACGAGTCGGCGAGA, 0.0838.
Consider TCCCTATTAGTCAGGGAGA, for which the TetR repression strength is 0.144.
TCCCATGCAGTGGACGAGA returned a TetR repression strength of 0.0613.
TCCCATTTAGTCAGAGAGA had a TetR repression strength of 0.321.
